Measured values from PubChem BioAssay AID1347428 (National Center for Advancing Translational Sciences (NCATS), 2020).
Screen size: about 91,000 compounds; about 290 (0.32%) were called active. Inconclusive results, whose numbers are uncertain, are shown with a selection of clear calls. Calls follow the shape of the dose curve; as a rule, active = well fitted inhibition curve with a large enough effect; inconclusive = small, poorly fitted or top-dose-only effect; inactive = no such curve, though single readings can be large or run the other way. Potencies beside an inconclusive call are fits to weak or partial responses and may not hold up.

target: Single-stranded DNA cytosine deaminase (Homo sapiens) (UniProt Q9GZX7); experiment: Primary qHTS assay for inhibitors of Activation Induced Cytidine Deaminase (AID): AID signal; conditions: AID deamination FRET fluorescence, UDG-coupled, 4 h; activity change, negative = inhibition: at 115 µM (top of the series); also: nearly all actives have a fitted effect of over 25% in size
Chain of UniProt Q9GZX7 (Q9GZX7 whole entry, looked up): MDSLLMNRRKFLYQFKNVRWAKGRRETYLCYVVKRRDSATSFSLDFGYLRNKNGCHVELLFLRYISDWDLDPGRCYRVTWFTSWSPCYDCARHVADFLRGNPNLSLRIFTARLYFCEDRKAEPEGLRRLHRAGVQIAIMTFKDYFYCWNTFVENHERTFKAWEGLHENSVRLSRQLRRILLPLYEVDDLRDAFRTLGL
% is scaled to controls: 0 for no effect and ±100 for the full control effect; potency is read from the fitted curve at half-maximal effect; tags tell the direction and shape of the fitted curve.

Row | Compound | Potency | activity change, negative = inhibition
1 | Cc1cc(C)cc(OCC(=O)N(Cc2cccs2)c2ccc(Cl)cc2)c1 | active: 22.4 µM | –
2 | O=C(Sc1ccc(Cl)cc1)c1ccccc1F | – | inactive: -10.7%
3 | CC(C)N(Cc1ccccc1)S(=O)(=O)c1ccc(-c2cc(C(F)(F)F)on2)s1 | inconclusive: 31.6 µM [inhibitor, partial curve, poor fit] | –
4 | Cc1ccccc1NCc1c(C#N)c2ccccc2n1C | inconclusive: 44.7 µM [inhibitor, partial curve, poor fit] | –
5 | CCc1ccccc1-n1c(C)nc2cc(C(=O)NCCc3ccc(Cl)cc3)ccc21 | inconclusive: 50.1 µM [inhibitor, partial curve, poor fit] | –
6 | Nc1nccnc1C(=O)NCC(c1ccccc1)c1c[nH]c2ccccc12 (stereo unspecified) | – | inactive: 0.632%
7 | CCCn1c2ccccc2c2cnn(CC(=O)N3CCCC(C)C3)c(=O)c21 (stereo unspecified) | inconclusive: 79.4 µM [inhibitor, partial curve, poor fit] | –
8 | Cc1nc2nc(SCC(=O)NC3CCCCC3)nn2c(C)c1Cc1ccccc1Cl | inconclusive: 70.8 µM [inhibitor, partial curve, poor fit] | –
9 | CC(C)c1ccc(Nc2ncnc3onc(-c4ccc(F)cc4)c23)cc1 | inconclusive: 100 µM [inhibitor, single point] | –
10 | O=C(O)c1ccc(/C=C/C(=O)c2cccc(Br)c2)cc1 | inconclusive: 56.2 µM [inhibitor, partial curve, poor fit] | –
11 | CCCS(=O)(=O)c1nc(S(=O)(=O)c2ccc(C)cc2)c(N(C)Cc2ccccc2)s1 | inconclusive: 14.1 µM [inhibitor, full curve, poor fit] | –
12 | Cc1c(Cl)ccc2sc(N3CCN(C(=O)C(C)C)CC3)nc12 | inconclusive: 79.4 µM [inhibitor, partial curve, poor fit] | –
13 | COc1ccc(CC(=O)Nc2ccc3nc(Nc4ccc(OC)cc4)cc(C)c3c2)cc1 | – | inactive: 27.1%
14 | CN(C)c1ccc(CN(Cc2ccco2)C(=O)c2ccc(C(C)(C)C)cc2)cc1 | inconclusive: 35.5 µM [inhibitor, partial curve, poor fit] | –
15 | Cc1ccc2[nH]cc(C(C(=O)O)N3CCN(Cc4cccc(Cl)c4)CC3)c2c1 (stereo unspecified) | – | inactive: -0.928%
16 | CCN1C(=O)c2ccccc2S(=O)c2ccc(C(=O)NCc3ccc(OC)cc3)cc21 (stereo unspecified) | inconclusive: 22.4 µM [inhibitor, partial curve, poor fit] | –
17 | O=C(Cc1cccs1)N1CCN(c2ncnc3c2nnn3-c2ccc(F)cc2)CC1 | inconclusive: 50.1 µM [inhibitor, partial curve] | –
18 | COc1cc(/C=C(/C#N)c2ccccc2)ccc1OCCOc1ccccc1 | – | inactive: -10%
19 | CCn1c(C(=O)NCc2ccc(F)cc2)cc2oc3ccccc3c21 | inconclusive: 56.2 µM [inhibitor, partial curve, poor fit] | –
20 | COc1ccc2[nH]cc(CCNC(C)=O)c2c1 | – | inactive: -1.33%
21 | COc1cccc(OCc2nc3ccccc3n2CCOc2ccc(C)cc2)c1 | inconclusive: 39.8 µM [inhibitor, full curve, poor fit] | –

Row | Compound | Potency | activity change, negative = inhibition
22 | O=C(O)c1cccc(/C=N/O)c1O | – | inactive: -4.08%
23 | COc1ccc(NC(c2nnc(-c3ccccc3)o2)c2ccccc2F)cc1Cl (stereo unspecified) | inconclusive: 31.6 µM [inhibitor, full curve, poor fit] | –
24 | CCc1ccc(OC(C)C(=O)N2CCC(c3nc4ccccc4o3)CC2)cc1 (stereo unspecified) | inconclusive: 44.7 µM [inhibitor, partial curve, poor fit] | –
25 | CC(C)c1ccc(Cn2c(COc3ccccc3)nc3ccccc32)cc1 | – | inactive: -27.4%
26 | O=C(NC(NC(=O)c1ccccc1)C(Cl)Cl)c1ccccc1 | – | inactive: 6.9%
27 | CC(C)(C)OC(=O)N1CCC(c2c(C(=O)NCc3cccc(Cl)c3)cnn2-c2ccc(F)cc2)CC1 | inconclusive: 39.8 µM [inhibitor, partial curve, poor fit] | –
28 | CCOC(=O)c1cc(-c2ccc(OC)cc2)n(CCC(=O)Nc2ccccc2OC)c1C | inconclusive: 31.6 µM [inhibitor, partial curve] | –
29 | CCOC(=O)c1ccc(N2C(=O)c3[nH]nc(-c4ccccc4)c3C2c2ccc(CC)cc2)cc1 (stereo unspecified) | inconclusive: 89.1 µM [inhibitor, partial curve, poor fit] | –
30 | O=C(NCc1cccs1)c1ccc2c(=O)n3nc(Nc4ccccc4)sc3nc2c1 | – | inactive: -7.09%
31 | CCn1c(=O)cc(SCC(=O)NCc2ccc(F)cc2Cl)c2ccccc21 | inconclusive: 79.4 µM [inhibitor, partial curve, poor fit] | –
32 | CCc1ccc(Sc2cc(C(=O)NCc3cccc(OC)c3)c3ccccc3n2)cc1 | inconclusive: 10 µM [inhibitor, full curve] | –
33 | COC(=O)c1ccc(OCC2c3cc(OC)c(OC)cc3CCN2C(=O)Cc2ccc(OC)cc2)cc1 (stereo unspecified) | inconclusive: 39.8 µM [inhibitor, partial curve, poor fit] | –
34 | Cc1ccc(C)c(NC(=O)CN2CCCN(Cc3cccc(Cl)c3)S2(=O)=O)c1 | inconclusive: 50.1 µM [inhibitor, partial curve, poor fit] | –
35 | Cc1cccc(N2C(=O)N(CC(=O)C(C)(C)C)c3ccccc3S2(=O)=O)c1C | inconclusive: 6.31 µM [inhibitor, full curve, poor fit] | –
36 | COc1ccc(OC)c(CNC(=O)c2cc3c(-c4ccc(OC)c(OC)c4)nn(C)c3s2)c1 | inconclusive: 44.7 µM [inhibitor, full curve, poor fit] | –
37 | Cc1ccc(NC(=O)c2ccc(-c3cccc(Cl)c3C)o2)cc1 | inconclusive: 39.8 µM [inhibitor, partial curve] | –
38 | Cc1ccc(OCc2nc(-c3ccc(C(=O)N4CCN(c5ccccc5F)CC4)cc3)oc2C)cc1 | inconclusive: 14.1 µM [inhibitor, full curve, poor fit] | –
39 | Cn1nc(C(=O)NCc2ccc(Cl)cc2)c2c1-c1ccccc1S(=O)(=O)C2 | inconclusive: 39.8 µM [inhibitor, partial curve, poor fit] | –
40 | Cn1c(NCc2ccccc2)nc2c1c(=O)n(Cc1ccccc1F)c(=O)n2C | – | inactive: -12.3%
41 | O=C(NCCc1ccccc1)c1cnc2sc(N3CCCCCC3)nn2c1=O | inconclusive: 35.5 µM [inhibitor, partial curve, poor fit] | –
42 | CCc1ccc(C(=O)c2cn(CC(=O)Nc3cccc(OC)c3)c3ccc(OC)cc3c2=O)cc1 | inconclusive: 50.1 µM [inhibitor, partial curve, poor fit] | –

Row | Compound | Potency | activity change, negative = inhibition
43 | CCCCOc1ccc(-c2nn(-c3ccccc3)cc2C2NC(=O)NC(C)=C2C(=O)OCC)cc1 (stereo unspecified) | inconclusive: 50.1 µM [inhibitor, partial curve, poor fit] | –
44 | Cc1ccc(CNC(=O)c2ccc3c(c2)nc(C)n3-c2cccc(F)c2)cc1 | inconclusive: 2.82 µM [inhibitor, full curve, poor fit] | –
45 | O=C(/C=C/c1cccc2ccccc12)c1cccs1 | – | inactive: -12%
46 | CC(CNC(=O)CC(c1ccccc1)c1ccccc1)OC12CC3CC(CC(C3)C1)C2 (stereo unspecified) | inconclusive: 35.5 µM [inhibitor, partial curve, poor fit] | –
47 | O=C(OCc1cc(=O)oc2cc3c(cc12)CCC3)C1CCCO1 (stereo unspecified) | – | inactive: -8.05%
48 | CN(CC(=O)Nc1cccc(F)c1)C(=O)C1CCN(c2ccc(C#N)cn2)CC1 | – | inactive: -19.9%
49 | COc1ccc(-c2c3c(=O)n(C)c(=O)n(C)c3c3n2-c2ccccc2NC3c2ccc(OC)cc2)cc1 (stereo unspecified) | inconclusive: 50.1 µM [inhibitor, partial curve, poor fit] | –
50 | COc1cccc(CNC(=O)Cn2c(=O)ccc3cc(S(=O)(=O)N4CCC(C)CC4)ccc32)c1 | inconclusive: 70.8 µM [inhibitor, partial curve, poor fit] | –
51 | COc1cccc(-c2cc(C(=O)Nc3c(C)nn(Cc4ccccc4Cl)c3C)no2)c1 | inconclusive: 25.1 µM [inhibitor, full curve, poor fit] | –
52 | Cc1cc2nnc(SCc3ccc(F)cc3)n2c2ccccc12 | inconclusive: 50.1 µM [inhibitor, partial curve, poor fit] | –
53 | CCC1(C)CC(=O)c2c(ccc3oc(C(=O)NCc4ccccc4)c(C)c23)O1 (stereo unspecified) | inconclusive: 20 µM [inhibitor, full curve, poor fit] | –
54 | CCOc1ccc(C(=O)c2cn(CC(=O)Nc3ccc(OC)cc3)c3cc4c(cc3c2=O)OCCO4)cc1 | inconclusive: 79.4 µM [inhibitor, partial curve, poor fit] | –
55 | Cc1ccc(-c2nc(-c3nc(-c4cccs4)cs3)sc2C)cc1C | – | inactive: -13%
56 | CCOc1ccc(C(=O)/C=C/c2cn(CC(O)CN3CCCCCC3)c3ccccc23)cc1 (stereo unspecified) | inconclusive: 50.1 µM [inhibitor, partial curve, poor fit] | –
57 | Cc1cccc(C)c1Nc1c(-c2ccccc2F)nc2cccc(C)n12 | inconclusive: 39.8 µM [inhibitor, full curve, poor fit] | –
58 | COc1cccc(-c2nn(C)c3sc(C(=O)NCc4cc(OC)ccc4OC)cc23)c1 | inconclusive: 50.1 µM [inhibitor, partial curve, poor fit] | –
59 | O=C(CCS(=O)(=O)c1nc(-c2cccs2)cc(C(F)(F)F)n1)Nc1ccc(OC(F)(F)F)cc1 | active: 10 µM | –
60 | CC(C)(C)c1ccc(Cn2c(Cc3ccccc3)nc3ccccc32)cc1 | inconclusive: 44.7 µM [inhibitor, partial curve, poor fit] | –
61 | Cc1ccc(CN(Cc2ccco2)C(=O)COc2ccccc2C)cc1 | inconclusive: 44.7 µM [inhibitor, partial curve, poor fit] | –
